This is one part of the list. These are noisy estimates, calculated here from bound and input reads.

The target of the experiment is T1, Pho4 (S. cerevisiae) (UniProt P07270).
T1 sequence: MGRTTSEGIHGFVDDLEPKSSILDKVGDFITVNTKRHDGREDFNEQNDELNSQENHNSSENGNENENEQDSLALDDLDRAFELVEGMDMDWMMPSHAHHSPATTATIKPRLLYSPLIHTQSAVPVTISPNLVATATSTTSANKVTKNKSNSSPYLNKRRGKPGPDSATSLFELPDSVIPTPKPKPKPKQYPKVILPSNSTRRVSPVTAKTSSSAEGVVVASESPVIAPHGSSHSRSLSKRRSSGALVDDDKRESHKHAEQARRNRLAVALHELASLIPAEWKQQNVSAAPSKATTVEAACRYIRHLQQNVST
Kind of experiment: relative binding free energy (BET-seq); higher = weaker binding. The following applies: reference: library average.
For AAGTACACGTGATGAG, the “relative binding free energy” value turned out to be 0.17 kcal/mol.

Consider GGACGCACGTGGGCGG, for which the “relative binding free energy” value is -0.31 kcal/mol. As for ATGTTCACGTGGTGAC, the “relative binding free energy” value is 0.28 kcal/mol. To ATATGCACGTGTGGAG belongs -0.07 kcal/mol; to GTTTACACGTGGAAAT, 0.29 kcal/mol; to AGTAGCACGTGCTTGT, -0.2 kcal/mol.

With TGTCACACGTGTGAGG, the “relative binding free energy” value was 0.1 kcal/mol. The result for TTTTTCACGTGTGCCG reads 0.28 kcal/mol.

In the case of GTGGTCACGTGGACAG, the “relative binding free energy” value is 0.01 kcal/mol. To GATATCACGTGATTTT belongs 0.34 kcal/mol. AGATTCACGTGCGGGT: the “relative binding free energy” value was found to be 0.17 kcal/mol. To GTGCTCACGTGACGTG belongs 0.38 kcal/mol.

Regarding TTCACCACGTGTGGGG, the “relative binding free energy” value was -0.02 kcal/mol. For the sequence TGGTTCACGTGTCGTG, the “relative binding free energy” value came to 0.22 kcal/mol. The result for AGGATCACGTGGTTAC reads 0.12 kcal/mol; that for TTTTGCACGTGGGGGA, -0.12 kcal/mol; that for GTTGCCACGTGGCAGG, -0.1 kcal/mol. The result for TGATTCACGTGGATCG reads 0.37 kcal/mol; that for AGGGGCACGTGTCAAG, -0.28 kcal/mol. On to GTCGTCACGTGTGATA, for which the “relative binding free energy” value worked out at 0.21 kcal/mol. To CAGGGCACGTGCTGTT belongs -0.2 kcal/mol; to CGTGTCACGTGATTAG, 0.25 kcal/mol. The result for GCTCTCACGTGGGTGT reads 0.18 kcal/mol.

On to TGTTGCACGTGGCGTC, for which the “relative binding free energy” value was -0.01 kcal/mol. Regarding GTTCTCACGTGGAGTT, the “relative binding free energy” value turned out to be 0.33 kcal/mol.

For CGTGACACGTGAGTTG, the “relative binding free energy” value stood at 0.18 kcal/mol. To CAGTGCACGTGTTAGT belongs 0.03 kcal/mol; to GGGTGCACGTGGAGAC, -0.06 kcal/mol. The result for GGGGTCACGTGGACGA reads 0.16 kcal/mol; that for AGTGGCACGTGGCACG, -0.31 kcal/mol; that for GTGATCACGTGGGAAG, 0.02 kcal/mol.

Take GCGGTCACGTGGTTGT: the “relative binding free energy” value was found to be 0.09 kcal/mol. To TATGTCACGTGTTTTT belongs 0.18 kcal/mol; to ATAGTCACGTGGAATA, 0.18 kcal/mol.

Regarding GTTGACACGTGTGGCG, the “relative binding free energy” value came to 0.02 kcal/mol. To GTTTCCACGTGATTTG belongs 0.23 kcal/mol. The result for AATGGCACGTGAGTGG reads 0.09 kcal/mol; that for GAAATCACGTGGAGTG, 0.34 kcal/mol; that for TTGAACACGTGTGATA, 0.15 kcal/mol. To GGGAGCACGTGGGGAG belongs -0.19 kcal/mol. For the sequence AGCGTCACGTGCAGGT, the “relative binding free energy” value was -0.01 kcal/mol.

Take CGTATCACGTGTCGTG: the “relative binding free energy” value was 0.13 kcal/mol. For GGGTACACGTGGCAAT, the “relative binding free energy” value turned out to be 0.06 kcal/mol. As to TATTACACGTGAATTT, the “relative binding free energy” value stood at 0.33 kcal/mol.

GAGTTCACGTGAGCGT: the “relative binding free energy” value turned out to be 0.26 kcal/mol. The result for ATTGACACGTGGTACG reads -0.1 kcal/mol; that for AGGGGCACGTGAAAGT, 0.16 kcal/mol; that for AGTGTCACGTGATGGT, 0.12 kcal/mol. The result for GTCACCACGTGGTGGT reads 0.03 kcal/mol; that for TTGTGCACGTGATAAT, 0.08 kcal/mol; that for AGTGACACGTGTTGTA, -0.06 kcal/mol.

As for GGGTTCACGTGCTGTC, the “relative binding free energy” value stood at 0.33 kcal/mol. The result for TTAATCACGTGTGAAT reads 0.28 kcal/mol.

As to TGTAGCACGTGTAGTC, the “relative binding free energy” value stood at 0.02 kcal/mol. To ATAGTCACGTGGGAGG belongs 0.01 kcal/mol. The result for TGTATCACGTGCACGG reads 0.08 kcal/mol; that for CGGTGCACGTGAACGG, 0.2 kcal/mol.

Take AAAGGCACGTGGTCGG: the “relative binding free energy” value is -0.23 kcal/mol.

Source of the values: the BET-seq Pho4 binding data (Le et al. 2018).
